Source: PubChem BioAssay AID686978 (National Center for Advancing Translational Sciences (NCATS), 2013)
“And” between values parts separate entries of the source, which are not always exact repeats. Equal values may be shown once. Out of some 420,000 compounds screened, about 64,000 (15%) were called active. The shares of active, inactive and inconclusive entries below differ from those in the screen. Calls follow the shape of the dose curve; as a rule, active = well fitted inhibition curve with a large enough effect; inconclusive = small, poorly fitted or top-dose-only effect; inactive = flat fitted curve, though single readings scatter. Potencies of inconclusive entries are doubtful fits and often do not repeat.

assay: qHTS for Inhibitors of human tyrosyl-DNA phosphodiesterase 1 (TDP1): qHTS in cells in absence of CPT; settings: DT40 Tdp1-/- hTDP1 cells, no CPT, ATP luminescence, 48 h; activity change, negative = growth inhibition: at 46.2 µM (top of the series) unless noted; also: nearly all actives have a fitted effect of over 55% in size
Outline: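 A cellular qHTS used chicken DT40 cells lacking endogenous Tdp1 but carrying stably transfected human TDP1. Compounds were applied without camptothecin, and cell growth kinetics were judged by ATP-dependent luminescence after ≥48 hr.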
% is scaled to controls: 0 for no effect and ±100 for the full control effect; potency is read from the fitted curve at half-maximal effect; tags tell the direction and shape of the fitted curve.

| SMILES | Potency | activity change, negative = growth inhibition |
| --- | --- | --- |
| CC(=O)Nc1cccc(Oc2nc(NC(C)C)nc3cc(-c4ccccc4)sc23)c1 | inconclusive: 29.1 µM [inhibitor, single point] |  |
| O=C(NCc1ccccc1)c1ccc(NC(=O)c2nsc3ccccc23)cc1 | inconclusive: 29.1 µM [inhibitor, single point] |  |
| Cc1nc2ccccn2c1C(=O)NCc1ccc2c(c1)OCO2 | inconclusive: 20.6 µM [inhibitor, partial curve] |  |
| CCOC(=O)/C=C/C(=O)Nc1ccc(S(=O)(=O)N2CCCCCC2)cc1 | inconclusive: 29.1 µM [inhibitor, single point] |  |
| COc1ccccc1CNC(=O)c1ccc(CS(=O)(=O)c2ccccc2C)o1 | inconclusive: 29.1 µM [inhibitor, single point] and inconclusive: 14.6 µM [inhibitor, partial curve] |  |
| COCCNC(=S)N1CCN(c2cccc(C(F)(F)F)c2)CC1 | active: 23.1 µM |  |
| CCC(=O)N1CCc2cc(S(=O)(=O)CCC(=O)NCc3cccs3)ccc21 | inconclusive: 29.1 µM [inhibitor, single point] |  |
| Cc1ccc(S(=O)(=O)N(C)C[C@@H]2OCc3cnnn3CCCC(=O)N([C@H](C)CO)C[C@H]2C)cc1 | inconclusive: 29.1 µM [inhibitor, single point] |  |
| COc1ccc2nnc(-c3ccc(C(F)(F)F)cc3)n2n1 |  | inconclusive: -30.3% [inhibitor] |
| O=C(O)CNC(=O)CCn1nnc2ccccc2c1=O | inconclusive: 29.1 µM [inhibitor, single point] |  |
| COc1ccccc1NCC(=O)NNCC(=O)Nc1ccc(F)c(Cl)c1 |  | inactive: -25.5% |
| CCOc1cccc(CC(=O)Nc2ccc3nc(N4CCCCC4)cc(C)c3c2)c1OCC | inconclusive: 29.1 µM [inhibitor, single point] |  |
| CSCC(C)N1CCC(Oc2cccc(C(=O)NCc3ccccn3)c2)CC1 (centres undefined) |  | inactive: 1.31% |
| CC(=O)N1CCCc2cc(S(=O)(=O)N3CCC(C(=O)NCc4ccc(N(C)C)cc4)CC3)ccc21 | inconclusive: 23.1 µM [inhibitor, single point] |  |
| COc1cc(CN(CC2CCCO2)C(=O)c2ccc(F)cc2)cc(OC)c1OC (centres undefined) | inconclusive: 11.6 µM [inhibitor, single point] |  |
| O=S(=O)(NCC1CCCO1)c1ccc(Cl)c2ccccc12 (centres undefined) | inconclusive: 29.1 µM [inhibitor, single point] |  |
| CCC(=O)N1CCc2cc(S(=O)(=O)NCCC(=O)NCc3ccccc3Cl)ccc21 | inconclusive: 20.6 µM [inhibitor, single point] |  |
| CCOP(=O)(OCC)c1nc(/C=C/c2ccccc2)oc1NCc1ccc(OC)cc1 | inconclusive: 23.1 µM [inhibitor, single point] |  |
| COC(=O)c1ccc(NC(=O)c2ccccc2OCC(=O)Nc2ccc(Br)cc2)cc1 | active: 10 µM |  |
| Cc1ccccc1-n1c(SCC(=O)N2CCN(c3ccccc3)CC2)nnc1-c1ccncc1 | active: 20.6 µM |  |
| COc1cc(/C=C(/Sc2nnc(-c3ccc(F)cc3)o2)C(=O)O)ccc1OC(F)F | inconclusive: 16.4 µM [inhibitor, partial curve] |  |
| COc1ccc(CN(Cc2ccccc2)C(=O)c2ccco2)cc1COc1ccc(NC(C)=O)cc1 | inconclusive: 11.2 µM [inhibitor, partial curve] |  |

| SMILES | Potency | activity change, negative = growth inhibition |
| --- | --- | --- |
| Cc1ccc(Oc2ccc(NC(=O)c3ccco3)cc2)cc1 |  | inconclusive: -31.3% [inhibitor] |
| COc1ccc(-c2c(-c3ccsc3)oc(=O)c3cc(OC)c(OC)cc23)cn1 | inconclusive: 23.1 µM [inhibitor, single point] |  |
| CCOC(=O)c1cnc(-n2nc(C)cc2C)nc1NNc1nc(-c2ccccc2)cc(-c2ccccc2)n1 | active: 3.26 µM |  |
| O=C(NCc1csc(-c2cccs2)n1)C1CCCCC1 | inconclusive: 32.6 µM [inhibitor, partial curve] |  |
| CC(C)c1nc2ccc(C(=O)NCCCN3CCN(c4ccccc4F)CC3)cc2o1 | inconclusive: 20.6 µM [inhibitor, single point] |  |
| CC1CC(C)CN(CC(=O)Nc2cc(S(=O)(=O)N3CCOCC3)ccc2N2CCCC2)C1 (centres undefined) | inconclusive: 29.1 µM [inhibitor, single point] |  |
| OCCOCCn1c(C2CCCN2c2nc(-c3ccc(F)cc3)cs2)nc2cc(C(F)(F)F)ccc21 (centres undefined) | inconclusive: 18.4 µM [inhibitor, single point] |  |
| COC(=O)c1ccc(-n2nnc(-c3nc(-c4ccc5c(c4)OCO5)no3)c2C)cc1 |  | inactive: 1.78% |
| CC(=O)NCCNc1nc2c(S(=O)(=O)c3ccc(C)c(C)c3)nnn2c2ccc(Cl)cc12 | inconclusive: 25.9 µM [inhibitor, single point] |  |
| c1ccc(CN2CCN(c3nc4ccccc4c4ccccc34)CC2)cc1 | inconclusive: 29.1 µM [inhibitor, single point] |  |
| CCN(CC)C(=O)C1CCN(S(=O)(=O)c2ccc3c(c2)CCCN3C(=O)C2CCC2)CC1 | inconclusive: 29.1 µM [inhibitor, single point] |  |
| O=[N+]([O-])c1ccc(S(=O)(=O)c2cccc(C(F)(F)F)c2)nc1 | active: 0.651 µM |  |
| COc1ccc(S(=O)(=O)Nc2ccc(C)cc2)cc1OC |  | inactive: -13.3% |
| COc1cc2nc(N3CCCN(C)CC3)nc(N)c2cc1OC | inconclusive: 20 µM [inhibitor, single point] |  |
| CCOc1ccccc1C1NC(c2ccc3c(c2)OCO3)=CC(c2ccccc2O)N1 (centres undefined) | active: 14.1 µM |  |
| Oc1c(Br)cccc1/C=N/Nc1c(F)c(F)c(F)c(F)c1F | active: 20.6 µM |  |
| CCN(CCCCN1C(=O)c2ccccc2C1=O)c1ccc2c(c1)C(=O)N(C)C2=O | active: 18.4 µM |  |
| CC1CN(CC(O)COc2ccc(C(=O)c3ccccc3)cc2)CC(C)O1 (centres undefined) |  | inconclusive: -35.7% [inhibitor] |
| COC1C(O)CC(=O)OC(C)C/C=C/C=C/[C@@H](OC2CCC(N(C)C)C(C)O2)C(C)C[C@@H](CC=O)[C@@H]1O[C@H]1OC(C)[C@H](O[C@@H]2C[C@@](C)(O)C(O)C(C)O2)C(N(C)C)C1O (some centres undefined) | inconclusive: 29.1 µM [inhibitor, single point] |  |
| CCOc1ccc(C(Nc2ccc(C)cc2)P2(=O)OCC(C)(C)CO2)cc1 (centres undefined) | inconclusive: 29.1 µM [inhibitor, single point] |  |
| Cc1cc(NC(=O)CSc2ncnc3c2cnn3-c2cccc(Cl)c2)no1 |  | inconclusive: -29.9% [inhibitor] |
| COc1ccc(OCc2nc(N)nc(Nc3ccc(C)cc3)n2)cc1 | inconclusive: 13 µM [inhibitor, partial curve] |  |

| SMILES | Potency | activity change, negative = growth inhibition |
| --- | --- | --- |
| COC(=O)/C(=C\Nc1cccc(Cl)c1C)c1ncc(C(F)(F)F)cc1Cl | inconclusive: 29.1 µM [inhibitor, single point] |  |
| Cc1[nH]c2ccccc2c1C(=O)CN(C)c1ccccc1 | inconclusive: 0.631 µM [inhibitor, full curve, poor fit] |  |
| O=C(N/N=C\c1cn(-c2ccccc2)nc1-c1ccccc1)c1ccc(Br)o1 | inconclusive: 29.1 µM [inhibitor, single point] |  |
| CCn1c(SCC(=O)Nc2cccc(NC(=O)c3cccs3)c2)nnc1-c1ccncc1 | inconclusive: 10.3 µM [inhibitor, partial curve] |  |
| COC(=O)c1cc(NC(=O)c2ccc([N+](=O)[O-])cc2)c(=O)oc1C |  | inactive: -21.3% |
| Cc1ccccc1S(=O)(=O)N1C(c2ccc(Cl)c(Cl)c2)CC=C(C(=O)O)C1c1cccc(Br)c1 (centres undefined) | inconclusive: 16.4 µM [inhibitor, single point] |  |
| O=C(NC1CCCN(Cc2ccc(Cl)cc2)C1)c1cnc2ccccn2c1=O (centres undefined) | active: 18.4 µM |  |
| COc1ccc(S(=O)(=O)N2CCCCCC2)cc1NC(=O)Cc1ccccc1F | inconclusive: 11.6 µM [inhibitor, partial curve] |  |
| O=C(NCC1CCCN1S(=O)(=O)c1cccs1)C(=O)Nc1ccc(F)cc1F (centres undefined) | inconclusive: 29.1 µM [inhibitor, single point] |  |
| COc1ccc(C(C(=O)Nc2c(C)cccc2C)n2c(=O)c(-c3ccco3)nc3ccccc32)cc1 (centres undefined) | inconclusive: 25.9 µM [inhibitor, single point] |  |
| COc1ccc(/C(N)=N/OC(=O)Cc2ccc(C)cc2)cc1OC | inconclusive: 29.1 µM [inhibitor, single point] |  |
| CC(=O)Nc1ccc(NC2CCCCC2NS(=O)(=O)c2ccc(Cl)cc2)cc1 (centres undefined) |  | inactive: 14.5% |
| O=C(Cn1nnc(-c2ccc(F)cc2)n1)OCC(=O)c1ccccc1 |  | inactive: -15.4% |
| CC(C)(C)C(=O)Nc1ccc(C(=O)Nc2cccc(Oc3ccc(C(=O)O)c(C(=O)O)c3)c2)cc1 |  | inactive: 5.73% |
| CN1C(=O)/C(=C/c2coc3ccc(O)cc3c2=O)SC1=S | inconclusive: 11.6 µM [inhibitor, partial curve, poor fit] |  |
| O=C(Nc1ccc(Oc2ccccc2)cc1)c1ccc(Cn2c(=O)[nH]c3ccsc3c2=O)cc1 | inconclusive: 8.2 µM [inhibitor, partial curve, poor fit] |  |
| CCOC(=O)c1ccc(NC(=O)c2ccccc2)cc1 |  | inactive: -14.9% |
| COc1cccc(OCCOc2cccc(/C=N/n3cnnc3)c2)c1 | inconclusive: 29.1 µM [inhibitor, single point] |  |
| CCN(CC)CCn1c(NCc2nc3ccccc3n2Cc2ccccc2)nc2ccccc21 | inconclusive: 20.6 µM [inhibitor, single point] |  |
| COC(=O)c1nc2n(n1)C(c1cc(OC)ccc1OC)C(C(=O)OC1CCCCC1)=C(C)N2 (centres undefined) |  | inactive: -14.7% |
